# Results from PubChem BioAssay (NCATS).
# The inconclusive results got no clear call from the source; some entries with a clear call stand among them for comparison. No potency is given beside an inconclusive call; the fits are too rough. The source made the active and inactive calls. The call rests on the fitted dose curve; in most records, active means well fitted inhibition curve with a large enough effect in the repeat runs; inconclusive means weak or mixed curves; inactive means flat fitted curve, though single readings scatter.
# Molecular target: Cytochrome P450 2D6 (Homo sapiens) (UniProt P10635)
# UniProt P10635, sequence (P10635 whole entry, looked up): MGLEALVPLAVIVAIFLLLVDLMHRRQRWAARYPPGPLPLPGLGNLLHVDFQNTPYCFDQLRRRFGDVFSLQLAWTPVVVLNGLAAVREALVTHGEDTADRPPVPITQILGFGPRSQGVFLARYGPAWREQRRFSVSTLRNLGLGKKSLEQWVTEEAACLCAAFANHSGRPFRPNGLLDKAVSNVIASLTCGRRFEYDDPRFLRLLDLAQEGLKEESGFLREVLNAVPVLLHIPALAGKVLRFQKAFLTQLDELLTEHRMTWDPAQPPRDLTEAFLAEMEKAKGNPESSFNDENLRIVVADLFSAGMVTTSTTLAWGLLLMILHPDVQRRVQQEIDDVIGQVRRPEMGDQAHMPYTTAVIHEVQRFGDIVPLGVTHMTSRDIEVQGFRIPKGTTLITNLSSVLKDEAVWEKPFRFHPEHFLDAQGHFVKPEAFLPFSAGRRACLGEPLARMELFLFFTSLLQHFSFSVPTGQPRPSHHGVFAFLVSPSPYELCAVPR
# Assay: Cytochrome P450 family 2 subfamily D member 6 (CYP2D6) small molecule antagonists: luciferase biochemical (cell-free) qHTS assay (AID 1645840); further: nearly all actives have a fitted effect of over 55% in size
# Details: P450-Glo CYP2D6 enzyme, luciferin luminescence, 1 h; series mostly up to 57.4 µM
# Method in brief: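 P450-Glo CYP2D6 system: proluciferin substrate converted by enzyme to luciferin, read by luminescence proportional to activity. Enzyme-substrate mix with compound 10 min at room temperature, then NADPH regeneration 1 h before detection reagent.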
# Potency means the concentration at half of the fitted maximal effect; tags describe the fitted curve by direction and shape.
row,Compound,Potency
1,CCOC(=O)c1c(C)n(C)c2ccc(O)cc12,"inconclusive [inhibitor, partial curve, poor fit]"
2,C1Cc2[nH]nc(-c3nn[nH]n3)c2C1,inactive
3,NS(=O)(=O)c1ccc(NC2=CC(=O)c3ccccc3C2=O)cc1,"inconclusive [inhibitor, full curve]"
4,CC1(C)SCCN(S(=O)(=O)c2ccc(OCC#CCO)cc2)[C@@H]1C(=O)NO,"inconclusive [inhibitor, partial curve, poor fit]"
5,CCN(CC)CCCC(C)Nc1nc(C)cc(Nc2ccc3nc(C)cc(N)c3c2)n1 (configuration not stated),"inconclusive [inhibitor, single point]"
6,N#Cc1ccc(C(c2ccc(C#N)cc2)n2cncn2)cc1,inactive
7,CN1CCN(c2cccc(Nc3nc4c(-c5ccc(S(C)(=O)=O)cc5)cccn4n3)c2)CC1,"inconclusive [inhibitor, partial curve, poor fit]"
8,CC[C@H](NC(C)C)[C@H](O)c1ccc(O)c2[nH]c(=O)ccc12,"inconclusive [inhibitor, single point]"
9,COc1cc(NC(=O)c2ccc(-c3ccc(Cl)cc3)o2)cc(OC)c1,"inconclusive [inhibitor, full curve]"
10,O=C1Nc2ccc(Cl)cc2C(C#CC2CC2)(C(F)(F)F)O1 (configuration not stated),active: 16.9 µM
11,c1ccc2c(-c3cnn4cc(-c5ccc(N6CCNCC6)cc5)cnc34)ccnc2c1,inactive
12,CCOc1ccc(Nc2nc(-c3c(C)nc4ccccn34)cs2)cc1,active: 15.1 µM
